Results taken from PubChem BioAssay (Tox21).
Several values for one entry are separate records, joined by “and”; a condition that tells them apart may be missing. Equal entries are not always repeated. The shares of active, inactive and inconclusive entries below differ from those in the screen. Potencies of inconclusive entries are doubtful fits and often do not repeat. Activity calls are given as the source filed them. The call rests on the fitted dose curve; in most records, active means well fitted cell-killing curve with a large enough effect in the repeat runs; inconclusive means weak or mixed curves, or effect the other way; inactive means flat fitted curve, though single readings scatter.

experiment: cAMP Responsive Elements (CRE) small molecule antagonists, cell-based qHTS assay: qHTS cell viability counter screen (AID 2060913); details: CRE-bla HEK293T viability, CellTiter-Glo luminescence, 5 h; series mostly up to 92.4 µM; viability change, negative = cytotoxic: at the top concentration; further: nearly all actives have a fitted effect of over 40% in size
In short: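 CRE-bla HEK293T cells (2,000/well, 18 h) given compound plus NKH477 0.25 uM final for 3 h at 37C; viability counter-screen by CellTiter-Glo luminescence in same wells after 30 min.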
On the % scale 0 is the no-effect control and ±100 the full control effect; potency means the concentration at half of the fitted maximal effect; tags describe the fitted curve by direction and shape.

Row | SMILES | Potency | viability change, negative = cytotoxic
1 | Cc1ccccc1CO[C@@H]1C[C@@]2(C(C)C)CC[C@]1(C)O2 | inconclusive: 54.5 µM [cytotoxic, partial curve, poor fit] | –
2 | CN1C(=S)CN=C(c2ccccc2)c2cc(Cl)ccc21 | – | inactive: 4.05% [at 42.5 µM]
3 | C[C@@H]1C[C@@H]([C@H](O)CC2CC(=O)NC(=O)C2)C(=O)[C@@H](C)C1 | inconclusive: 5.31 µM [rising, partial curve, poor fit] | –
4 | CC(C)COP(=O)(OCC(C)C)OCC(C)C | inconclusive: 0.0273 µM [rising, full curve, poor fit] | –
5 | CC(C)[C@@H](C(=O)O[C@@H](C#N)c1cccc(Oc2ccccc2)c1)c1ccc(Cl)cc1 | inconclusive: 13.9 µM [cytotoxic, full curve, poor fit] | –
6 | Cc1cc(C2CC2)nc(Nc2ccccc2)n1 | inconclusive: 77 µM [cytotoxic, partial curve, poor fit] | –
7 | CC(C)(O)C(=O)Nc1ccc([N+](=O)[O-])c(C(F)(F)F)c1 | inconclusive: 39.4 µM [cytotoxic, partial curve, poor fit] | –
8 | CC(C)CCCCCCCOC(=O)c1ccccc1C(=O)OCCCCCCCC(C)C | – | inactive: 3.22%
9 | CC1C(=O)C[C@]2(C(C)C)C[C@H]12 (stereo partly drawn) | – | inactive: 0.517%
10 | COP(=S)(OC)Oc1cc(Cl)c(Br)cc1Cl | inconclusive: 61.1 µM [cytotoxic, partial curve, poor fit] | –
11 | N#CCCSCCC#N | – | inactive: -6.03%
12 | CSC(=O)c1c(C(F)F)nc(C(F)(F)F)c(C(=O)SC)c1CC(C)C | inconclusive: 54.2 µM [cytotoxic, partial curve, poor fit] | –
13 | CO/N=C(/C1=NOCCO1)c1ccccc1Oc1ncnc(Oc2ccccc2Cl)c1F | inconclusive: 30.6 µM [cytotoxic, partial curve, poor fit] | –
14 | CC(C(=O)c1ccccc1)N(C)C (stereo not drawn) | – | inactive: -1.09% [at 42.5 µM]
15 | CCOP(=O)(OCC)OCC | inconclusive: 2.54 µM [cytotoxic, single point] | –
16 | CCC(C(N)=O)N1CCCC1=O (stereo not drawn) | – | inactive: 7.41% [at 42.5 µM]
17 | COC(N)=O | – | inactive: -4.38%
18 | Oc1c(Cl)c(Cl)c(Cl)c(Cl)c1Cl | inconclusive: 34.3 µM [cytotoxic, partial curve, poor fit] | –
19 | CC(c1ccccc1)(c1ccc(O)cc1)c1ccc(O)cc1 | inconclusive: 54.5 µM [cytotoxic, partial curve] | –

Row | SMILES | Potency | viability change, negative = cytotoxic
20 | CCC(C)(C)c1ccc(O)cc1 | inconclusive: 61.1 µM [cytotoxic, partial curve, poor fit] | –
21 | CC(C)c1cccc(C(C)C)c1O | inconclusive: 63.9 µM [cytotoxic, single point] | –
22 | COc1cc2c(cc1OC)[C@@]13CCN4CC5=CCO[C@H]6CC(=O)N2[C@H]1[C@H]6[C@H]5C[C@H]43 | – | inactive: 7.03%
23 | CC(C)N1C(=O)N(c2ccccc2)CSC1=NC(C)(C)C | inconclusive: 48.6 µM [cytotoxic, partial curve, poor fit] | –
24 | CC(C)CC(C)Nc1ccc(Nc2ccccc2)cc1 (stereo not drawn) | – | inactive: -14.1%
25 | CCOP(=O)(Sc1ccccc1)Sc1ccccc1 | – | inactive: 0.383%
26 | O=S1OCC2C(CO1)C1(Cl)C(Cl)=C(Cl)C2(Cl)C1(Cl)Cl (stereo not drawn) | inconclusive: 68.7 µM [cytotoxic, single point] and active: 61.1 µM | –
27 | Oc1c(I)cc(I)cc1I | inconclusive: 77 µM [cytotoxic, single point] | –
28 | COc1nn(C(=O)NS(=O)(=O)c2ccccc2OC(F)(F)F)c(=O)n1C | inconclusive: 1.17 µM [cytotoxic, single point] | –
29 | c1ccc(N=NNc2ccccc2)cc1 | inconclusive: 15.9 µM [cytotoxic, single point] | –
30 | CO/C=C(/C(=O)OC)c1ccccc1COc1cccc(C(F)(F)F)n1 | inconclusive: 10.9 µM [cytotoxic, full curve, poor fit] | –
31 | CC(C)(c1ccccc1)c1ccc(O)cc1 | inconclusive: 68.6 µM [cytotoxic, partial curve, poor fit] | –
32 | CCn1cc[n+](C)c1 | inconclusive: 55 µM [cytotoxic, partial curve] and inconclusive: 63.3 µM [cytotoxic, partial curve, poor fit] | –
33 | c1ccc2c(c1)Sc1ccccc1N2CC1CN2CCC1CC2 (stereo not drawn) | inconclusive: 26.6 µM [cytotoxic, partial curve, poor fit] | –
34 | CCC[CH2][Sn]([Cl])([CH2]CCC)[CH2]CCC | active: 3.86 µM and active: 7.7 µM | –
35 | O=[N+]([O-])c1ccccc1Cl | inconclusive: 27.4 µM [cytotoxic, single point] | –
36 | Clc1ccc(C(c2ccccc2Cl)C(Cl)(Cl)Cl)cc1 (stereo not drawn) | inconclusive: 20.1 µM [cytotoxic, partial curve, poor fit] | –
37 | O=P(OCCCl)(OCCCl)OCCCl | inconclusive: 1.36 µM [cytotoxic, single point] | –
38 | OCC(c1ccc(Cl)cc1)c1ccc(Cl)cc1 | inconclusive: 61.1 µM [cytotoxic, partial curve, poor fit] | –
